Reference: PubChem BioAssay AID1347417 (National Center for Advancing Translational Sciences (NCATS), 2020)
The whole screen tested about 120,000 compounds, of which about 5,300 (4.4%) were called active. This list was built around the results that the source calls inconclusive (neither active nor inactive); the mix of calls is not that of the screen. Calls come from the whole dose curve; as a rule, active = well fitted inhibition curve with a large enough effect; inconclusive = small, poorly fitted or top-dose-only effect; inactive = no such curve, though single readings can be large or run the other way. Potencies of inconclusive entries are doubtful fits and often do not repeat.
Potency is the fitted concentration of half-maximal effect; tags give direction and shape of the fitted curve.

Assay: qHTS Primary assay for Inhibitors of Plasmodium falciparum Dd2 growth in vitro; note: nearly all actives have a fitted effect of over 65% in size;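 for activity, negative = inhibition: plate controls were DMSO vehicle for no effect and reference drug for full effect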
Conditions: P. falciparum Dd2 growth, SYBR Green, 72 h; activity, negative = inhibition: at 28.9 µM (top of the series) unless noted; series mostly up to 28.9 µM
Procedure, shortened: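 Readout: SYBR Green fluorescence, 485 nm excitation, 535 nm emission, after ~16 h lysis at 37C. Before that, Dd2-infected red cells (2.5% hematocrit) grew 72 h with compound, 29 uM top final concentration.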
With `O=C(NC[C@H]1Cn2c(-c3ccccc3)cnc2CO1)c1ccccc1` the Potency was inconclusive: 10 µM [inhibitor, partial curve]. For `COc1cccc(NC(=O)Cn2c(=O)n(CCc3ccccc3)c(=O)c3c4c(sc32)CN(C(C)=O)CC4)c1`, the Potency was inconclusive: 17.8 µM [inhibitor, single point]. For `N[C@@H]1CC[C@@H]1NC(=O)c1ccccc1OC(F)(F)C(F)F`, the Potency was inconclusive: 8.91 µM [inhibitor, partial curve, poor fit]. For `c1cnc2c(-n3nc(C4CCOCC4)nc3C3CC3)cccc2c1`, the “activity, negative = inhibition” value was inactive: 2.1%. In the case of `COc1cccc(C(=O)c2cn(CC(=O)NCCc3ccccc3)c3nc(C)ccc3c2=O)c1`, the “outcome” value is reported as “inactive”. For `CCOC(=O)N1CCc2c(sc3c2C(=O)NC(c2cc(OC)c(O)c(OC)c2)N3)C1` (stereo not given), the “activity, negative = inhibition” value was inactive: -14.7%. For `CCCN(CCC)CCCNC(=O)Cn1cc2c(n1)-c1c(oc(C(=O)N3CCCC3)c1C)CC2`, the Potency was inconclusive: 17.8 µM [inhibitor, single point]. For `COc1cccc(S(=O)(=O)N2CC3(Cc4ccccc4C(=O)N3)C2)c1`, the “activity, negative = inhibition” value was inactive: -8.9%. For `COCc1ccc2c(c1)c(OC(C)(C)C(N)=O)nn2Cc1cccc(OC)c1`, the Potency was inconclusive: 12.6 µM [inhibitor, partial curve, poor fit]. With `COCCOC1CCOC2(CCN(C(=O)Cc3ccccc3F)CC2)C1` (stereo not given) the Potency was inconclusive: 12.6 µM [inhibitor, partial curve, poor fit]. In the case of `Cc1ccc(C)c(N2CCN(CCCNC(=O)c3ccc4nc(N5CCCCC5)sc4c3)CC2)c1`, the Potency is reported as inconclusive: 11.2 µM [inhibitor, single point]. For `Cc1ccc(-c2nnc(Nc3ccccc3)c3ccccc23)cc1S(=O)(=O)NCc1nc2ccccc2[nH]1`, the Potency was inconclusive: 17.8 µM [inhibitor, single point]. For `CCCNc1cc(N2CCC(CCC(=O)NCc3cccc(OC)c3)CC2)ncn1`, the Potency was inconclusive: 10 µM [inhibitor, single point]. With `Cc1cccc(N2CCN(C(=O)CCS(=O)(=O)c3ccc4c(c3)oc(=O)n4C)CC2)c1C` the Potency was inconclusive: 10 µM [inhibitor, single point]. With `COc1ccc(C(=O)N(c2ccc(OC)cc2)S(=O)(=O)c2ccc3c(c2)n(C)c(=O)n3C)cc1` the Potency was inconclusive: 14.1 µM [inhibitor, single point]. In the case of `C=Cc1ccc(COc2ccc3oc(-c4ccccc4)c(C(=O)OCC)c3c2)cc1`, the Potency is reported as inconclusive: 1 µM [inhibitor, single point]. With `CN1CCCCCCN(C(=O)NCCc2ccccc2)[C@H]2CCC[C@H]2C1=O` the “activity, negative = inhibition” value was inactive: -7.54%. In the case of `CCC(NC(=O)Nc1cc(OC)ccc1OC)c1c(-n2cccc2)sc2c1CCN(CC)C2` (stereo not given), the Potency is reported as inconclusive: 10 µM [inhibitor, single point]. For `COc1ccccc1OCc1cc(C(=O)N2CCC(NC(C)=O)CC2)n[nH]1`, the Potency was inconclusive: 11.2 µM [inhibitor, partial curve, poor fit]. With `Cc1ccccc1[C@@H]1CN(Cc2cnn(CCC(=O)O)c2)C[C@H]1C(=O)O` the “activity, negative = inhibition” value was inactive: 10.1%. In the case of `COc1ccc(-c2cnc([C@@H]3COCCN3Cc3ccccc3O)[nH]2)cc1`, the Potency is reported as inconclusive: 1.26 µM [inhibitor, partial curve]. With `NS(=O)(=O)c1ccsc1C(=O)N1CCCC2(CCNCC2)CC1` the “activity, negative = inhibition” value was inactive: -4.24%. With `Cc1ccc(C)c(-c2cc3c(=O)n(CCNC(=O)Cc4ccsc4)ccn3n2)c1` the Potency was inconclusive: 8.91 µM [inhibitor, partial curve, poor fit]. With `O=C(NCc1ccc2c(c1)CCN2C(=O)c1ccc(F)cc1)c1ccco1` the Potency was active: 2.82 µM. With `Cc1cc2c(-c3cccc(OC(C)C)c3)nc(-c3c(C)noc3C)cc2[nH]1` the Potency was inconclusive: 31.6 µM [inhibitor, single point]. For `Cc1ccc(C(=O)N2CCCN(c3cc(-c4ccc(C)c(C)c4)[nH]n3)CC2)cc1C`, the Potency was inconclusive: 3.55 µM [inhibitor, partial curve]. In the case of `COCCOCC1(CNCc2nccn2C)C[C@@H](O)[C@@H](O)C1` (stereo not given in full), the “activity, negative = inhibition” value is reported as inactive: 1.79% [at 44.1 µM]. In the case of `O=C1NC(=NC2CCCCC2)C2(CCCN(CC3CC3)C2)N1c1cc(F)cc(F)c1` (stereo not given), the Potency is reported as inconclusive: 3.16 µM [inhibitor, partial curve]. For `CC(=O)Nc1ccc(S(=O)(=O)N[C@H]2CO[C@H]3[C@@H]2OC[C@@H]3Nc2nccc(-c3cccs3)n2)cc1`, the Potency was inconclusive: 8.91 µM [inhibitor, partial curve, poor fit]. For `CCCSc1ncc(Cl)c(C(=O)Nc2ccc(S(=O)(=O)N3CCCCC3C)cc2)n1` (stereo not given), the Potency was inconclusive: 11.2 µM [inhibitor, single point]. For `COc1ccc(CNc2ncnc3c2CN(C2CCNCC2)C(=O)CN3C)cc1OC`, the activity, negative = inhibition was inconclusive: -81.4% [inhibitor]. In the case of `CCc1ccc(C(=O)NC2CCN(c3cn[nH]c(=O)c3)CC2)cc1`, the Potency is reported as inconclusive: 3.16 µM [inhibitor, partial curve]. In the case of `Cc1ccc(CNC(=O)C2CN(S(=O)(=O)c3cccnc3)CC23CCCCC3)o1` (stereo not given), the Potency is reported as inconclusive: 10 µM [inhibitor, single point]. With `COc1cccc(CC(=O)N2CCC3(CC2)N=C(c2ccc(Cl)cc2)NO3)c1` the Potency was inconclusive: 3.98 µM [inhibitor, full curve, poor fit]. For `COC(=O)Cc1c(C)c2ccc3c(c2oc1=O)CN(Cc1ccc(Cl)cc1)CO3`, the Potency was active: 7.08 µM. With `Cc1nn(C)c(C)c1CCNC(=O)CCC[C@H]1NC[C@@H]2C[C@H]1CN(Cc1ccccc1)C2` the Potency was inconclusive: 20 µM [inhibitor, single point]. With `CCn1ccnc1CN(C)Cc1cn(Cc2ccccc2)nc1-c1ccc2c(c1)OCO2` the Potency was inconclusive: 1.12 µM [inhibitor, full curve, poor fit]. For `O=C(c1cnccn1)N1CCC2(CC1)NC(=O)N(Cc1cccc(Cl)c1)C2=O`, the “outcome” value was “inactive”. In the case of `CCOc1ccc(-c2cc(C)n3nc(C(=O)Nc4ccc(C)c(C)c4)cc3n2)cc1`, the “activity, negative = inhibition” value is reported as inactive: -17.2%. With `CCc1nnc(SCC(=O)Nc2ccc(OC)c(OC)c2)c2cc3occc3n12` the “activity, negative = inhibition” value was inactive: 0.832%.
